# According to article PMC12040169 (PLOS Biology, 2025):
# The other results are listed elsewhere or left out.
# Test system: T1, C. trachomatis L2/434/Bu expressing GFP (CTL2-GFP)
# T1 construct: L2/434/Bu GFP intracellular growth in HeLa cells
# Parameters: species or system HeLa; C. trachomatis total inclusion area by high-content imaging, normalised to DMSO
# Settings: total inclusion area; 28.5 h, 10 µM; inhibitor
# Summary of the method: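 After bulk GFP and resorufin fluorescence reads, cells were fixed, stained with Hoechst and imaged by high-content microscopy. Inclusion area and number (GFP) stood in for chlamydial growth, nuclei count (Hoechst) for host cell viability. MICs were derived as for the bulk readout.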
row,Compound,% of control remaining
1,O=C1c2ccccc2C(=O)N1CN(Cc1ccc2c(c1)OCO2)CN1C(=O)c2ccccc2C1=O [CBK265197],88.6755
2,CC(=O)N(C)Cc1cccc(Nc2ncnc3c2cnn3C)c1 [CBK306319],48.0056
3,Cc1cc(O)n2nc(CC(=O)NCCCn3ccnc3C(C)C)nc2n1 [CBK306876],47.6278
4,COc1ccc(C(C)C)cc1-c1cnc2[nH]c(=O)n([C@H](CO)C(C)C)c2n1 [CBK064962],92.717
5,CC(=O)c1ccc(-c2cc(Nc3ccc(O)cc3C)ncn2)s1 [CBK091052],88.1804
6,Cc1[nH]c(=O)[nH]c(=O)c1CCC(=O)N(C)CC(=O)Nc1cccc(F)c1 [CBK305703],50.8507
7,CC1CN(c2cc(CO)c(F)cn2)CC2(CCOC2)O1 (stereo not shown) [CBK304772],50.561
8,O=C1CC(SCc2nc3ccccc3[nH]2)C(=O)N1c1ccccc1Cl (stereo not shown) [CBK266702],84.3842
9,CCn1c(-c2ccc3c(c2)OCCO3)cnc1SCC(=O)c1cc(C)[nH]c1C [CBK297880],73.7309
10,O=C(O)Cn1cc(I)c(=O)[nH]c1=O [CBK262698],102.217
11,Cc1ccc(C2=N/C(=C/c3ccc(OS(=O)(=O)c4ccc(C)c([N+](=O)[O-])c4)cc3)C(=O)O2)cc1 [CBK264647],82.6149
12,NCCc1nc(-c2ccccc2)c2cnccn12 [CBK035705],81.7068
13,COc1ccc(C2C(C(=O)Nc3ccccc3)=C(C)Nc3ncnn32)cc1 (stereo not shown) [CBK287353],81.2594
14,O=C(Nc1ccc(S(=O)(=O)NCc2ccccc2)cc1)Nc1ccc2c(c1)OCO2 [CBK268186],89.1973
15,O=C(Cn1cccn1)NC(CN1CCCCC1)c1ccccc1 (stereo not shown) [CBK281726],106.565
16,NC1CCC(N(CCc2ccccc2)C(=O)Nc2ccc3c(c2)OCO3)CC1 (stereo not shown) [CBK000480C],93.6993
17,CC(=O)NCCn1cc2c(n1)[C@H]1CN(C(=O)c3ccccc3)C[C@H]1C2 [CBK282073],87.0352
18,CCc1ccc(O)c(NC(=S)NC(=O)c2cccc3c(Br)cccc23)c1 [CBK264385],97.2927
19,Cc1cc(C)n(CC2CN(CC(=O)NCc3ccccn3)CCO2)n1 (stereo not shown) [CBK305344],106.68
20,Cc1nc(C)c(C(C)NCc2c(C(C)C)nn(C)c2N(C)C)s1 (stereo not shown) [CBK304005],73.5126
21,O=C(/C=C/c1cccnc1)NCc1ccc(OC2CCNCC2)cc1 [CBK038945T],107.08
22,CCn1cc(C(=O)N2CCN(Cc3ccco3)C[C@@H]2C(C)C)c(C)n1 [CBK285488],95.8047
23,CCn1c(CN2CCn3c(nnc3C3CC3)C2)nc2c(F)cccc21 [CBK306300],70.794
24,COc1ccc2ccccc2c1[S+]([O-])NC1CCCCC1 (stereo not shown) [CBK022400],73.2358
25,Cc1nn(Cc2cccnc2)c(=O)n2cccc12 [CBK283848],102.702
26,N#Cc1c(N)nc(SCC(=O)c2cc3ccccc3oc2=O)c(C#N)c1-c1ccc(O)cc1 [CBK261269],104.566

row,Compound,% of control remaining
1,Nc1n[nH]c(SCC(=O)Nc2ccc(Br)cc2Cl)n1 [CBK267875],112.959
2,CCN(CC)C(=O)c1ccc(-n2ccnc2)c(-n2cccc2)c1 [CBK285371],85.0421
3,CC(C)c1ccc(NC(=O)CN2CCN(c3ccc(C(F)(F)F)cn3)CC2)cc1 [CBK086000],91.5184
4,COc1ncc(-c2nccnc2OC)c(OC)n1 [CBK106744],102.614
5,NC(=O)CNC(=O)C1CCCN(c2nc3c(-c4ccccc4)csc3c(=O)[nH]2)C1 (stereo not shown) [CBK215487],111.646
6,CCOc1ccc(NC(=O)N(CCO)Cc2nccn2C)cc1C#N [CBK307634],45.9224
7,Cc1nc(-c2ccccc2)sc1CNC(=O)C(F)(F)F [CBK092363],117.692
8,Brc1cnc(-n2cnc3ccccc32)nc1 [CBK288546],55.2197
9,O=C(CN1CCC(c2ccc(F)cc2)CC1)N1CCOCC1 [CBK283683],89.8454
10,CNCCC(Sc1ccccn1)c1ccccc1 (stereo not shown) [CBK021724C],117.987
11,Cc1ccccc1CNCCNCCO [CBK278293C],93.2146
12,Cc1ncsc1C(=O)N1CCCC(n2cnc3cc(F)ccc32)C1 (stereo not shown) [CBK284470],99.5762
13,Cn1c2c(c(=O)[nH]c1=O)C1(O)C(=O)c3ccccc3C1(O)N2 (stereo not shown) [CBK261683],84.4807
14,O=C(C1CC1)N1CCC[C@H]1Cn1nc(-c2ccc(F)cc2)ccc1=O [CBK284252],90.1
15,O=C(NCCN1CCOCC1)c1ccc2nccnc2c1 [CBK268806],74.9188
16,O=C(c1ccco1)N1CCC(n2c(=O)oc3ccc(Cl)cc32)CC1 [CBK284343],70.876
17,COc1cnc(-c2ccsc2)c(NC(=O)CC(C)C)n1 [CBK145292],109.607
18,Cc1cc(NC(=O)CSc2nnc3ccc(-c4ccccc4)nn23)no1 [CBK287679],71.6747
19,Cc1ccc(SCCNS(=O)(=O)c2ccc(C)cc2)cc1 [CBK263564],90.4251
20,COc1ccc2c(c1)CCCN2C(=O)c1sc2ccccc2c1Cl [CBK056960],66.1721
21,Cc1nn(C)c(Cl)c1S(=O)(=O)NCc1cc(C)n(C)n1 [CBK062154],54.9744
22,CNC(=O)C1(Cc2ccc(-c3ccccc3)cc2)CCN(C(=O)COc2ccccc2)CC1 [CBK285766],98.213
23,O=C(c1ccccc1)c1ccccc1OCCO [CBK000728],116.206
24,CCCC/C=C/c1cnc2[nH]c(=O)n(CCCOC)c2n1 [CBK064540],91.1483
25,O=S(=O)(N1CCCCC1)N1CCN(CC(O)COc2ccc(-c3ccccc3)cc2)CC1 (stereo not shown) [CBK269370],77.5831
26,O=C1COc2ccc(C(=O)CSc3nnc(C4CC4)n3C3CC3)cc2N1 [CBK297110],100.759
